Test results: PubChem BioAssay AID686978 (National Center for Advancing Translational Sciences (NCATS), 2013)
In all, about 420,000 compounds went through this assay and about 64,000 (15%) were called active. The shares of active, inactive and inconclusive entries below differ from those in the screen. Calls come from the whole dose curve; as a rule, active = well fitted inhibition curve with a large enough effect; inconclusive = small, poorly fitted or top-dose-only effect; inactive = flat fitted curve, though single readings scatter. Potencies of inconclusive entries are left out as doubtful fits.

Assay: qHTS for Inhibitors of human tyrosyl-DNA phosphodiesterase 1 (TDP1): qHTS in cells in absence of CPT; note: nearly all actives have a fitted effect of over 55% in size
Settings: DT40 Tdp1-/- hTDP1 cells, no CPT, ATP luminescence, 48 h; activity change, negative = growth inhibition: at 46.2 µM (top of the series) unless noted
Procedure, shortened: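 Camptothecin absent (DMSO only). Human TDP1-complemented DT40 knockout cells, 400 cells/well, 37 °C for minimum 48 hr; ATP measured via CellTiter-Glo, 30 min dark incubation, luminescence.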
% is set by controls: 0 for no effect and ±100 for the full control effect; potency is the fitted concentration of half-maximal effect; tags give direction and shape of the fitted curve.

Compound	Potency	activity change, negative = growth inhibition
CC(=O)Nc1ccc(S(=O)(=O)N[C@@H](C)C(=O)OCc2cc([N+](=O)[O-])cc3c2OCOC3)cc1	inactive	
Cc1cc(C)cc(NC(=O)C(OC(=O)c2ccc(NC(=O)CC#N)cc2)c2ccccc2)c1 (centres undefined)	inconclusive [inhibitor, single point]	
O=C1C(Cl)=C(Nc2cccc(O)c2)C(=O)N1Cc1ccccc1	inconclusive [inhibitor, single point]	
COc1cc2[nH]c3c(N4CCN(c5ccc(Cl)cc5)CC4)ncnc3c2cc1OC	active: 18.4 µM	
Cc1ccc(NC(=S)N(CCN2CCOCC2)Cc2cc3cc4c(cc3[nH]c2=O)OCCO4)cc1	inconclusive [inhibitor, single point]	
Cc1ccc(CCNS(=O)(=O)c2ccc3c(c2)C(C)(C)C(=O)N3C)cc1	inconclusive [inhibitor, partial curve]	
N#CC(=C(O)COC(=O)CCC1CCCCC1)c1nc2ccccc2[nH]1	active: 5.17 µM	
COCCC(=O)N1CCC(Oc2ccc(C(=O)N3CCCCCCC3)cc2)CC1		inconclusive: -34.8% [inhibitor]
Cc1cc(C(C)(C)C)oc1C(=O)N(CC(=O)NC1CCCC1)Cc1ccccc1	active: 13 µM	
O=C(Cn1cnc2c(cnn2-c2ccc(F)cc2)c1=O)NCc1ccco1	active: 5.8 µM	
CCCS(=O)(=O)NC(=O)C1(C)CCN(C(=O)c2cc(C)on2)C1 (centres undefined)	inconclusive [inhibitor, partial curve, poor fit]	
O=C(Nc1ccc(N2CCCC2)cc1)c1cccc(Cl)c1Cl	active: 16.4 µM	
CCOC(=O)C1=C(N)N2C(=O)C(C)SC2=C(C(=O)OC)C1c1ccccc1OC (centres undefined)	inactive	
Cc1ccccc1S(=O)Cc1ccc(C(=O)NC2CC2)o1 (centres undefined)	inactive	
CN(C)c1cc(NC(=O)CNC(C)(C)C)c(O)c2c1C[C@H]1C[C@H]3[C@H](N(C)C)C(=O)C(C(N)=O)=C(O)[C@@]3(O)C(=O)C1=C2O	inactive	
Cc1cccc(NC(=O)C2CCCN(c3nnc(-n4c(C)ccc4C)s3)C2)c1C (centres undefined)	active: 14.6 µM	
COC(=O)c1scc(C)c1NC(=O)c1ccccc1F	inactive	
Cc1ccc(Cc2c(-c3cccc(Cl)c3)nc3ccc(Cl)cn23)cc1	inconclusive [inhibitor, single point]	
CCO[C@@H]1OC(C(=O)N2CCN(Cc3ccc4c(c3)OCO4)CC2)=C[C@H](C)[C@H]1CCCO	inconclusive [inhibitor, single point]	
Cc1cc(C(=O)N2CCCC(CNS(=O)(=O)c3cccs3)C2)nn1C (centres undefined)		inconclusive: -34.5% [inhibitor]
O=C(NCc1noc2ccccc12)Nc1ccc(F)cc1F	inactive	
O=C(Nc1cc(C(F)(F)F)ccc1Cl)c1cccc(N2C(=O)CCC2=O)c1	inactive	

Compound	Potency	activity change, negative = growth inhibition
CC(NC(=O)C(=O)NCCC1=CCCCC1)c1ccccc1 (centres undefined)	inconclusive [inhibitor, single point]	
COc1cccc(CNc2nc3ccccc3n2C(C)C)c1O	inconclusive [inhibitor, single point]	
Cc1ccccc1-c1cc(N2CCN(C)CC2)ncn1	inactive	
Cn1cc(NC(=O)c2cc(NC(=O)c3cc(NC=O)cn3C)cn2C)cc1C(=O)NCCC(=N)N	inactive	
COc1ccc(OC)c(-c2csc(NC(=O)Cc3ccccc3F)n2)c1	inconclusive [inhibitor, single point]	
CCOC(=O)C1=CCN(S(=O)(=O)c2cccc(Cl)c2)C1c1ccccc1 (centres undefined)	inconclusive [inhibitor, single point]	
CCCN(C(=O)Cn1c(=O)oc2cc(Cl)ccc21)c1ccc(C(C)C)cc1	inconclusive [inhibitor, single point]	
COc1ccc(C)cc1NC(=O)CN1C(=O)COc2ccc(S(=O)(=O)N3CCCCCC3)cc21	inconclusive [inhibitor, single point]	
CC1=C(C(=O)OCc2ccccc2)C(c2ccc(Cl)cc2)NC(=O)N1CCCC(=O)O (centres undefined)	inconclusive [inhibitor, single point]	
Cc1cc(N(C)C)ccc1N=Nc1ccc2ncccc2c1	inconclusive [inhibitor, single point]	
CCOC(=O)C1CCCN(C(=O)c2ccc3c(c2)N(Cc2cccc(Cl)c2)C(=O)c2ccccc2S3(=O)=O)C1 (centres undefined)	inconclusive [inhibitor, single point]	
CN(CC(=O)Nc1cccc(F)c1)C(=O)c1ccc2c(=O)n3c(nc2c1)CCC3	inactive	
COc1ccc(-c2cn(-c3ccc(OC)cc3)c(=S)[nH]2)cc1	active: 18.4 µM	
c1ccc(CN2CCCC3(CCCN(Cc4nc(CC5CC5)no4)C3)C2)cc1 (centres undefined)	inconclusive [inhibitor, partial curve]	
CC(Oc1ccc(S(=O)(=O)N2CCCC2)cc1[N+](=O)[O-])C(=O)NC1(C#N)CCCCC1 (centres undefined)	inconclusive [inhibitor, single point]	
COc1cccc(/C=C/C(=O)NCc2cn3cc(Cl)ccc3n2)c1OC	inconclusive [inhibitor, partial curve]	
CCc1ccc(S(=O)(=O)c2cn(C)c3cc(OC)c(OC)cc3c2=O)cc1	inconclusive [inhibitor, full curve]	
CN(C/C=C/c1ccccc1)C1CCCCC1	inconclusive [inhibitor, single point]	
Cc1ccc(-c2cc(C(=O)N3CCCC(C(F)(F)F)C3)c3ccccc3n2)o1 (centres undefined)	inconclusive [inhibitor, single point]	
c1ccc2c(c1)COc1c3cc4c(cc3nn1-2)OCO4	inconclusive [inhibitor, single point]	
CCC1CCc2c(sc(NC(=O)C3c4ccccc4Oc4ccccc43)c2C#N)C1 (centres undefined)	inconclusive [inhibitor, single point]	
C=CCOc1c(Br)cc(CNc2ccc(NC(=O)C(C)C)cc2)cc1OCC	inconclusive [inhibitor, single point]	
